Reference: patent publication US20220025032A1 (Novartis, published 2022)
Where a chain is given by its changes, count along the chain named. Several values for one entry are separate records, joined by “and”; a condition that tells them apart may be missing. Equal entries are not always repeated.

How the values were obtained:
[1] = target: T1, Human VEGF165 (human, UniProt P15692 27-191); test: SPR, NVS11 captured on the chip, average of 5 experiments
T1 construct: mature; biotinylated in the VEGFR2 ELISAs; also called human VEGF-A; VEGF-A
T1 sequence (looked up): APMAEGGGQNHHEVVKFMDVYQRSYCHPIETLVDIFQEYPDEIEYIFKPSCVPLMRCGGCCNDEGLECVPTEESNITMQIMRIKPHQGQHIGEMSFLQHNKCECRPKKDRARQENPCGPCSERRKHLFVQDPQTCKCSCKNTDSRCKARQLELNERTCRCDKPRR
Method: (§1) First, surface plasmon resonance used for affinity measurements of BTC or VEGF binding to NVS11 was captured on the chip.
(§2) The average values for human VEGF are calculated from 5 individual experiments. The average values for human and cyno BTC are calculated from 7 individual experiments.

[2] = target: T1, Human VEGF165; test: competition ELISA, biotinylated human VEGF binding to coated VEGFR2-Fc
Method: (§3) NVS11 neutralization of VEGF was determined by ELISA. Various concentrations of NVS11 was pre-incubated with biotinylated human VEGF and added to VEGFR2-Fc coated plates.

[3] = target: T2, Human BTC (human, UniProt P35070 32-111); test: inhibition of BTC binding to ErbB4; y axis MSD units, x axis Antibody concentration (pM); blocked partner ErbB4
T2 construct: Soluble human BTC of the Biacore, ELISA, MSD and cell assays; also called human betacellulin; soluble human BTC
T2 sequence: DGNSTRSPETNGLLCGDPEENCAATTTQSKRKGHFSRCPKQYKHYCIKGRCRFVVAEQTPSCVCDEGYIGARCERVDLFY

[4] = target: T1, Human VEGF165; test: competition ELISA: antibody pre-incubated with biotinylated human VEGF, added to coated human VEGFR2-Fc, streptavidin-HRP detection; blocked partner VEGFR2-Fc
Method: as §3

[5] = target: T2, Human BTC; test: inhibition of BTC binding to ErbB1; y axis MSD units, x axis Fab (pM); blocked partner ErbB1
[6] = target: T3, Human BTC-avitag-biotin (human, UniProt P35070 32-111, biotin on the avitag); test: flow cytometry, BTC-ErbB4 Cell Binding Inhibition: antibody pre-incubated with 15 nM human BTC-avitag-biotin, HKB11 cells over-expressing human ErbB4; y axis Percent Inhibition
T3 construct: also called biotin-BTC; soluble human BTC-avitag-biotin
T3 sequence: T2 sequence
Method: (§4) HKB11 over-expressing either ErbB1 or ErbB4 cells were plated 1×10⁵ cells/well. Cells were washed once with FACS buffer by spun down at 1200 rpm for 5 minutes and supernatant removed. Next, the Fab sample dilutions and BTC were prepared in FACS buffer. Human BTC-avitag-biotin was diluted to a fixed concentration of 15 nM. The test Fab samples were prepared at a starting concentration of 40 nM and titrated for 9 points at a serial dilution of 1:2. Both biotin-BTC and the test Fab samples are incubated for 30 minutes at room temperature. The pre-incubated samples were then added to the cell plate at 100 μl per well in duplicate and incubated for 1 hour on ice. The plate was then washed once in FACS buffer and spun down at 1200 rpm for 5 minutes and supernatant removed. […]
(§5) Measurements were performed on Attune Flow Cytometry machine. Data were analysed using the Flow Jo software. The live cell populations analysed were gated in forward and side scattering (FSC-A/SSC-A dot plot). The interval gate was established on the control histogram, which was obtained with sample incubated in streptavidin-Alexa Fluor488 only, and subsequently, determined percent of positive binding events of cells carrying membrane-bound receptor ErbB1 or ErbB4 and biotin-BTC. The median of fluorescence intensity (MFI) value was also derived for the live cell population. […]

[7] = target: T2, Human BTC; test: SPR Biacore T200, anti-Fab capture, antigen as analyte
[8] = target: T2, Human BTC; test: SPR, NVS11 captured on the chip, average of 7 experiments
Method: as §1, §2

[9] = target: T4, Cyno BTC (cynomolgus, UniProt A0A2K5X5E5 32-111); test: as above
T4 construct: also called cynomolgus BTC
T4 sequence: T2 sequence with E19D, A56T
Method: as §1, §2

[10] = target: T3, Human BTC-avitag-biotin; test: flow cytometry, BTC-ErbB1 Cell Binding Inhibition: antibody pre-incubated with 15 nM human BTC-avitag-biotin, HKB11 cells over-expressing human ErbB1; y axis Percent Inhibition
Method: as §4, §5

[11] = target: T5, membrane-bound human BTC on 293F-hBTC cells (human, UniProt P35070 32-111); test: flow cytometry on 293F cells with membrane-bound human BTC, anti-human Fab detection; y axis Percent Positive Binding, x axis Antibody concentration (nM)
T5 construct: the transfected construct is not described; also called membrane-anchored BTC
T5 sequence: T2 sequence
Method: (§6) After washing the cells, the cells were dissociated using Versene at 37° C. The cells were washed with FACS buffer and plated at 100 μl in a 96 well plate using cells at 1×10⁶ cells/ml. Then 100 μl of a serial dilution of antibodies starting at 50 nM was used. The cells were incubated, washed and then treated with the secondary anti-human Fab-FITC antibody. The antibodies only bound to the cells expressing BTC. After which the cells were washed and analyzed on the Attune Flow Cytometry. All data analysis was carried out using Flow Jo software.
(§7) In FIG. 6A, Flow cytometry was used to assess the binding of NVS11 to membrane-bound BTC using an anti-human Fab antibody for detection.

[12] = target: T1, Human VEGF165; test: competition ELISA: antibody pre-incubated with 400 pM VEGF-biotin, added to coated VEGFR2, streptavidin-HRP detection; y axis OD
Method: The plates were then washed 3 times using 1λTBST. The plates were blocked in 2% BSA diluent (0.1% Tween 20/0.1% TirtonX100) overnight. After blocking, the plates were washed 3 times using TB ST and then the sample mixture was added at 20 μl/well. The sample mixture consisted a final fixed concentration of VEGF-biotin (in-house) at 400 pM and a 15 point 1:2 serial dilution of the antibody starting at 20 nM. The sample mixture was pre-incubated for 1 hour prior to adding to the plate and then incubated for another hour at room temperature on the plate. Afterwards, the plate was washed 3 times using TBST and 20 μl/well of Streptavidin-HRP diluted at 1:5000 was added for an incubation time of 1 hour. The plates were washed 3 times in TBST and then 20 μl/well of TMB substrate was added. TMB is a chromogen that yields a blue color when oxidized. TMB was incubated for 10 minutes until the signal saturated in the no antibody samples, and then 10 μl/well of 2N sulfuric acid was added which then changes the blue color to yellow and this now has a maximum absorbance at 450 nm.

[13] = target: T5, membrane-bound human BTC on 293F-hBTC …; test: flow cytometry on 293F cells over-expressing membrane-bound BTC
Method: as §6, §7

Kd [1]: 0.0186 nM
koff [1]: 2.4e-05 s⁻¹
kon [1]: 1.3e+06 M⁻¹ s⁻¹
IC50 [2]: 1.3 nM and 0.127 µg/mL
IC50 [3]: 0.556 nM
IC50 [4]: 1.09 nM
IC50 [5]: 0.258 nM
IC50 [6]: 7.6 nM
Kd [7]: 0.0018 nM
Kd [8]: 0.0058 nM
koff [8]: 3e-05 s⁻¹
kon [8]: 5.1e+06 M⁻¹ s⁻¹
Kd [9]: 0.0072 nM
koff [9]: 3e-05 s⁻¹
kon [9]: 4.2e+06 M⁻¹ s⁻¹
IC50 [10]: 2.6 nM
EC50 [11]: 0.08 nM
IC50 [12]: 1.09 nM
EC50 [13]: 0.093 nM and 0.009 µg/mL
B1: NVS11 (bispecific antibody)
heavy: QVQLVQSGAEVKKPGSSVKVSCKASGGTFSSYAISWVRQAPGQGLEWMGGIVPWMGEAVYAQKFQGRVTITADESTSTAYMELSSLRSEDTAVYYCARSSSTYGIHAFDYWGQGTLVTVSSASTKGPSVFPLAPSSKSTSGGTAALGCLVKDYFPEPVTVSWNSGALTSGVHTFPAVLQSSGLYSLSSVVTVPSSSLGTQTYICNVNHKPSNTKVDKRVEPKSCGSGGGGSGGGGSGGGEVQLVESGGGLVQPGGSLRLSCTASGFSLTDYYYMTWVRQAPGKGLEWVGFIDPDDDPYYATWAKGRFTISRDNSKNTLYLQMNSLRAEDTAVYYCAGGDHNSGWGLDIWGQGTLVTVSSASTKGPSVFPLAPSSKSTSGGTAALGCLVKDYFPEPVTVSWNSGALTSGVHTFPAVLQSSGLYSLSSVVTVPSSSLGTQTYICNVNHKPSNTKVDKRVEPKSC
light: DIQMTQSPSSLSASVGDRVTITCRASQSISNFLNWYQQKPGKAPKLLIYAASNLQSGVPSRFSGSGSGTDFTLTISSLQPEDFATYYCQQYDDFPMTFGQGTKVEIKRTVAAPSVFIFPPSDEQLKSGTASVVCLLNNFYPREAKVQWKVDNALQSGNSQESVTEQDSKDSTYSLSSTLTLSKADYEKHKVYACEVTHQGLSSPVTKSFNRGECGSGGGGSGGGGSGGGEIVMTQSPSTLSASVGDRVIITCQASEIIHSWLAWYQQKPGKAPKLLIYLASTLASGVPSRFSGSGSGAEFTLTISSLQPDDFATYYCQNVYLASTNGANFGQGTKLTVLKRTVAAPSVFIFPPSDEQLKSGTASVVCLLNNFYPREAKVQWKVDNALQSGNSQESVTEQDSKDSTYSLSSTLTLSKADYEKHKVYACEVTHQGLSSPVTKSFNRGEC
notes: Fab-Fab: NVS1 Fab at the N-terminus, (GSGGG)3 linker, NVS8 Fab at the C-terminus; also called anti-BTC/anti-VEGF bispecific Fab; bispecific Fab-Fab
